# In PubChem BioAssay AID1346428 (National Center for Advancing Translational Sciences (NCATS), 2018):
# “And” between values parts separate entries of the source, which are not always exact repeats. Equal entries are not always repeated. The whole screen tested about 48,000 compounds, of which about 1,200 (2.5%) were called active. Inconclusive results (about 2%) are left out.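 The calls were made as follows: active = activation of at least 60% and not above a set upper limit (about 1 call in 100 departs from these limits); inconclusive = activation of 40% to 60%, or above that upper limit; inactive = activation under 40%.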 The list shows a part of the results.
# Target: Probable G-protein coupled receptor 32 (Homo sapiens) (UniProt O75388)
# Experiment: qHTS for Agonists of Human Resolvin D1 Receptor DRV1; also: 0% is about no effect
# Conditions: CHO-K1 GPR32 beta-arrestin PathHunter luminescence, 90 min; at 76.9 µM; stronger effect = higher value; zero percent set by DMSO-only wells
# Summary of the method: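 Luminescent readout of beta-Gal complementation quantifies ligand-induced beta-arrestin association with GPR32 in CHO-K1 cells; 90 min compound incubation at 37 °C, detection 1 h at room temperature.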
# UniProt O75388, sequence (O75388 whole entry, looked up): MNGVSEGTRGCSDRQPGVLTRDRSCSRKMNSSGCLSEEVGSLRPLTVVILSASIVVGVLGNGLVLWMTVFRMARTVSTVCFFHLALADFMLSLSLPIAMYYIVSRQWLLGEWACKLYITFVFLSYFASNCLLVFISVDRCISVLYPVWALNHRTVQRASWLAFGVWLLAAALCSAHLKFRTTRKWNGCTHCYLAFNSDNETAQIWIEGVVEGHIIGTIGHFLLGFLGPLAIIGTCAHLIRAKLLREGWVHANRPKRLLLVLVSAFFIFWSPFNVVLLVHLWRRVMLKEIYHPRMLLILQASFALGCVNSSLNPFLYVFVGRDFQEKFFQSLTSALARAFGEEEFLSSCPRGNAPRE
row,SMILES,activation
1,O=C1CC(c2ccc(Br)cc2)c2c(c3ccccc3oc2=O)O1 (configuration not stated),inactive: -22.1%
2,O=C(O)c1ccc(=O)[nH]c1,inactive: 5.93%
3,CCCSc1nc2ccccc2c(=O)n1-c1ccccc1OC,inactive: -37.8%
4,NCCc1c[nH]c2ccc(C(N)=O)cc12,inactive: 1.73%
5,COP(=S)(OC)Oc1cc(Cl)c(Cl)cc1Cl,inactive: 0.157%
6,Cc1ccc([N+](=O)[O-])[c]2c1[O][Hg]2,inactive: 26.2%
7,Cc1cc(C)cc(-n2c(=O)[nH]c3ccccc3c2=O)c1,inactive: -5.95%
8,O=S(=O)(O)C(F)(F)C(F)(F)C(F)(F)C(F)(F)F,active: 94.8%
9,CC(=O)N1CC(=O)Nc2ccc(F)cc2C1c1ccccc1 (configuration not stated),inactive: 13.9%
10,CCC12CN3CC(CC)(CN(C1)C3c1ccccn1)C2=O (configuration not stated),inactive: -11.1%
11,CCOP(=O)(NC(C)C)Oc1ccc(SC)c(C)c1 (configuration not stated),inactive: 7.84%
12,O=C1CC(c2c(F)cccc2Cl)c2c(c3ccccc3oc2=O)O1 (configuration not stated),inactive: 18.6%
13,S=C(SSC(=S)N1CCCCC1)N1CCCCC1,inactive: 1.88%
14,CC1OC(C)OC(C)O1 (configuration not stated),inactive: 7.56%
15,Cc1nnc(NC(=O)c2cccn(Cc3ccccc3F)c2=O)s1,inactive: 24%
16,Nc1ccc([As](=O)(O)O)cc1,inactive: -6.96%
17,O=C(COc1ccc(Cl)cc1)Nc1ccc(Cl)cc1C(=O)c1ccccc1,inactive: -0.753%
18,Cc1c(C(c2ccc(F)cc2)c2c(O)c3ccccc3oc2=O)c(=O)n(-c2ccccc2)n1C (configuration not stated),inactive: 7.32%
19,C=CCN1CC[C@]23CCCC[C@H]2[C@H]1Cc1ccc(O)cc13,inactive: -3.61%
20,ClC1=C(Cl)C2(Cl)C(CBr)CC1(Cl)C2(Cl)Cl (configuration not stated),inactive: 1.89%
21,Cc1ccc(-n2c(/C=C/c3ccc(Br)s3)nc3ccccc3c2=O)cc1C,inactive: -31.2%
22,O=c1[nH]c2ccccc2n1C1CCN(CCCC(c2ccc(F)cc2)c2ccc(F)cc2)CC1,inactive: 36.1% and inactive: -29.1%

row,SMILES,activation
1,CCCN1CC[C@@H]2c3cc(O)ccc3CC[C@@H]21,inactive: -5.93%
2,CCN(CCO)CCn1c(Cc2ccccc2)nc2c1c(=O)n(C)c(=O)n2C,inactive: -2.83%
3,COc1ccc(OC)c(NC(=O)Cn2cc(C(=O)c3ccccc3F)c3ccccc32)c1,inactive: -9.26%
4,C=CCOC(Cn1ccnc1)c1ccc(Cl)cc1Cl (configuration not stated),inactive: -28.2%
5,CC(=O)Nc1cc([As](=O)(O)O)ccc1O,inactive: -0.0424%
6,COc1ccc2c(C(=O)c3ccc(Cl)cc3)c(C)n(CC(=O)O)c2c1,inactive: -8.01%
7,NC(C(=O)O)c1cc(=O)[nH]o1 (configuration not stated),inactive: 6.34%
8,CCC(C(N)=O)N1CCCC1=O (configuration not stated),inactive: -8.93%
9,Nc1ccc(CCN2CCN(c3cccc(C(F)(F)F)c3)CC2)cc1,inactive: -7.11%
10,CC(C)NCC(O)c1ccccc1Cl (configuration not stated),inactive: 9.19%
11,Cc1nnc(NC(=O)c2cccn(Cc3ccc(Cl)cc3)c2=O)s1,inactive: 7.91%
12,CCCCCCCCCCCC[N+](C)(C)CCOc1ccccc1,inactive: -8.73%
13,O=C(Nc1ccccc1-c1ccc(Cl)cc1)c1cccnc1Cl,inactive: -24.2%
14,CC(=O)NCCc1c[nH]c2ccccc12,inactive: 9.91%
15,CC1COC2(c3ccccc3Cl)c3cc(Cl)ccc3NC(=O)CN12 (configuration not stated),inactive: 19.7%
16,COc1ccc(NC(=O)CN2C(=O)C(C)N=C(c3ccccc3F)c3cc(Cl)ccc32)c(OC)c1 (configuration not stated),inactive: -27.2%
17,CC(N)c1cccc(Cl)c1Cl (configuration not stated),inactive: 2.82%
18,Cc1cc(C)cc(-n2c(/C=C/c3cccc(F)c3)nc3ccccc3c2=O)c1,inactive: -16%
19,C#CCN(C)[C@H](C)Cc1ccccc1,inactive: -1%
20,Cc1ccc(NC(=O)N(Cc2ccc3c(c2)OCO3)C2CCN(Cc3ccccc3)CC2)cc1F,inactive: -5.85%
21,C[C@@H]1O[C@@H](O[C@@H]2C=C3CC[C@@H]4[C@H](CC[C@]5(C)[C@@H](c6ccc(=O)oc6)CC[C@]45O)[C@@]3(C)CC2)[C@H](O)[C@H](O)[C@H]1O,inactive: 16.4%
22,NC(Cc1ccc(N(CCCl)CCCl)cc1)C(=O)O (configuration not stated),inactive: -12%

row,SMILES,activation
1,Cc1cc(-n2c(/C=C/c3ccc(Br)s3)nc3ccccc3c2=O)ccc1Br,inactive: -19%
2,Cc1cc(-n2c(/C=C/c3cccs3)nc3ccccc3c2=O)ccc1Br,inactive: -10.8%
3,CCN(CC)CCOC(=O)C(O)(c1ccccc1)c1ccccc1,inactive: -0.171%
4,COc1ccc(C(CN(C)C)C2(O)CCCCC2)cc1 (configuration not stated),inactive: -3.26% and inactive: -3.93%
5,COc1ccc(C(=O)Nc2ccc(Cl)cc2C(=O)c2ccccc2)c(OC)c1,inactive: -24.5%
6,Cc1ccccc1CN1C(=O)CN=C(c2ccccc2)c2cc(Cl)ccc21,inactive: -17.3%
7,Cc1ccc(OCC(=O)N2CCN(CCc3ccncc3)CC2)cc1C,inactive: 14.9%
8,Cc1ccc(-n2c(/C=C/c3cc(Br)cs3)nc3ccccc3c2=O)cc1,inactive: -10.7%
9,O=c1c2ccccc2nc(/C=C\c2ccccc2F)n1-c1ccc(O)cc1,inactive: -4.21%
10,CCN(CCCl)Cc1ccccc1Br,inactive: -13.8%
11,Cc1o[nH]c(=O)c1CC(N)C(=O)O (configuration not stated),inactive: 10%
12,C[C@]12CC[C@H]3[C@@H](CCC4=CC(=O)CC[C@@]43C)[C@@H]1CC[C@@H]2C(=O)O,inactive: 10.5%
13,CCCCc1ccc(NC(=O)c2cccn(Cc3ccc(Cl)cc3)c2=O)cc1,inactive: 5.02%
14,Cc1c(C(c2ccc(Cl)cc2Cl)c2c(O)c3ccccc3oc2=O)c(=O)n(-c2ccccc2)n1C (configuration not stated),inactive: 10.3%
15,CCc1ccc(NC(=O)c2cccn(Cc3cccc([N+](=O)[O-])c3)c2=O)cc1,inactive: 17.2%
16,Cc1cccc(-n2c(/C=C/c3ccccc3O)nc3ccccc3c2=O)c1,inactive: -29.1%
17,O=c1c2ccccc2nc(/C=C/c2cccc3ccccc23)n1-c1ccccc1Cl,inactive: 14%
18,NP(N)(=O)NC(=O)c1ccc(F)cc1,inactive: -5.55%
19,COc1ccc(Cl)cc1NC(=O)CN1C(=O)CN=C(c2ccccc2)c2cc(Cl)ccc21,inactive: -11.9%
20,CC[n+]1c(-c2ccccc2)c2cc(N)ccc2c2ccc(N)cc21,inactive: -43.8%
21,Cc1ccc(-n2c(/C=C/c3ccc(Br)s3)nc3ccccc3c2=O)cc1,inactive: 14.9%
22,Oc1ccc2c3c1O[C@H]1c4oc5ccccc5c4C[C@@]4(O)C(C2)N(CC2CC2)CCC314 (some centres not stated),inactive: -24.1%

row,SMILES,activation
1,CCCCC1C(=O)NC(=O)N(C2CCCCC2)C1=O (configuration not stated),inactive: -6.02%
2,Clc1cccc(SC2CCNCC2)n1,inactive: -12.7%
3,CCOC(=O)c1ncn2c1CN(C)C(=O)c1c(I)cccc1-2,inactive: 0.99%
4,O=C(O)Cc1ccccc1,inactive: 0.0463%
5,CN1C(=O)[C@@H](NC(=O)c2cc3ccccc3[nH]2)N=C(c2ccccc2)c2ccccc21,inactive: -0.368%
6,c1cc2c(c(N3CCNCC3)c1)OCCO2,inactive: -8.94%
7,CCS(=O)(=O)C(C)(C)S(=O)(=O)CC,inactive: -13.3%
8,CN(C)CCc1c[nH]c2cccc(OP(=O)(O)O)c12,inactive: 26.8%
9,Cc1cccc(NC(=O)Cn2cc(C(=O)c3ccccc3)c3ccccc32)c1,inactive: -17.4%
10,O=c1[nH]c2cc(Cl)ccc2n1C1CCNCC1,inactive: -3.9%
11,O=c1c2ccccc2nc(/C=C\c2ccc(F)cc2)n1-c1ccccc1F,inactive: -7.28%
12,c1ccc(CCCN2CCN(CCOC(c3ccccc3)c3ccccc3)CC2)cc1,inactive: -20%
13,CC(=O)NS(=O)(=O)c1ccc(NC(=O)c2cccn(Cc3ccc(Cl)cc3)c2=O)cc1,inactive: -8.74%
14,COc1ccc(OCC(=O)N2CCN(Cc3cc(=O)n4nc(-c5ccccc5C)sc4n3)CC2)cc1,inactive: 36.2%
15,CCCn1c(C)c(C(=O)c2ccc3ccccc3c2)c2ccccc21,inactive: -23%
16,O=C(CCc1nc(C2=CCN(Cc3cccc(Cl)c3)CC2)no1)Nc1ccccc1F,active: 69.9%
17,C[C@]12CCC(=O)C=C1CC[C@@H]1[C@@H]2CC[C@@]2(C)[C@H]1CC[C@]2(C)O,inactive: -11.5%
18,CC(C)NCC(O)c1ccc(N)c(C#N)c1 (configuration not stated),inactive: -15%
19,CNCC(O)c1ccc(O)cc1 (configuration not stated),inactive: 4.09% and inactive: -3.25%
20,CC(Cc1ccccc1)NCCCCl (configuration not stated),inactive: -55.4%
21,O=C(COc1ccccc1Cl)N1CCN(CCc2ccncc2)CC1,inactive: -9.53%
22,C#CCOC(=O)C1=CCCN(C)C1,inactive: 9.09%

row,SMILES,activation
1,O=C(Cc1ccc(Cl)c(Cl)c1)N1CCCCC1CN1CCCC1 (configuration not stated),inactive: -7.18%
2,O=C(COc1cccc(Cl)c1)N1CCN(CCc2ccncc2)CC1,inactive: -9.08%
3,CCCN(CCC)c1c([N+](=O)[O-])cc(S(N)(=O)=O)cc1[N+](=O)[O-],inactive: -76.5%
4,Cc1ccc(Cn2cccc(C(=O)Nc3cc([N+](=O)[O-])ccc3C)c2=O)cc1,inactive: -6.28%
5,O=S1(=O)N(Cc2ccccc2)CCCN1Cc1cccc(Cl)c1,inactive: 15.7%
6,COCC(=O)N(c1c(C)cccc1C)C(C)C(=O)OC (configuration not stated),inactive: 8.47%
7,Cc1ccc(-c2nc(CN3C(=O)CN=C(c4ccccc4)c4cc(Cl)ccc43)c(C)o2)cc1,inactive: -36.5%
8,Cc1cc(NC(=O)c2cccn(Cc3cccc(Cl)c3)c2=O)no1,inactive: -0.151%
9,O=C(O)CCCOc1ccc(Cl)cc1Cl,inactive: 19.9%
10,NCC(CP(=O)(O)O)c1ccc(Cl)cc1 (configuration not stated),inactive: 0.222%
11,Cc1cccc(-n2c(/C=C/c3cn(C)c4ccccc34)nc3ccccc3c2=O)c1,inactive: -20.3%
12,c1ccc(C2CC2)c(OCC2=NCCN2)c1,inactive: 3.66% and inactive: -0.357%
13,O=C(Nc1ccon1)c1cccn(Cc2ccccc2)c1=O,inactive: 27.8%
14,CC[C@H]1C[C@@H]2C[C@H]3c4[nH]c5ccc(OC)cc5c4CCN(C2)[C@@H]13,inactive: -23.1%
15,C[C@]12CCC(=O)C(O)=C1CC[C@@H]1[C@@H]2CC[C@]2(C)C(=O)CC[C@@H]12,inactive: 10.9% and inactive: 4.65%
16,COc1ccc(/C=C/c2nc3ccccc3c(=O)n2-c2ccc(C)cc2)cc1O,inactive: -16.7%
17,OC(O)C(Cl)(Cl)Cl,inactive: -8.84%
18,CNC(C)(C)Cc1ccccc1,inactive: 2.44%
19,CCOP(=S)(OCC)Oc1cc(C)nc(C(C)C)n1,inactive: 6.58%
